According to PMC4336329 (PLoS ONE, 2015):
Out of some 310,000 compounds screened, about 14,000 (4.5%) showed an effect of 50% or more. Effects have a minus sign here. The list shows a part of the results.

Biological target: human ether-à-go-go-related gene (hERG) potassium channel (human, UniProt Q12809)
Test: primary screen, population patch clamp on CHO cells stably expressing hERG
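Further: peak tail current of the secondary pulse compared with the same well before compound.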

human ether-à-go-go-related gene (hERG) potassium channel, sequence (Q12809 whole entry, looked up): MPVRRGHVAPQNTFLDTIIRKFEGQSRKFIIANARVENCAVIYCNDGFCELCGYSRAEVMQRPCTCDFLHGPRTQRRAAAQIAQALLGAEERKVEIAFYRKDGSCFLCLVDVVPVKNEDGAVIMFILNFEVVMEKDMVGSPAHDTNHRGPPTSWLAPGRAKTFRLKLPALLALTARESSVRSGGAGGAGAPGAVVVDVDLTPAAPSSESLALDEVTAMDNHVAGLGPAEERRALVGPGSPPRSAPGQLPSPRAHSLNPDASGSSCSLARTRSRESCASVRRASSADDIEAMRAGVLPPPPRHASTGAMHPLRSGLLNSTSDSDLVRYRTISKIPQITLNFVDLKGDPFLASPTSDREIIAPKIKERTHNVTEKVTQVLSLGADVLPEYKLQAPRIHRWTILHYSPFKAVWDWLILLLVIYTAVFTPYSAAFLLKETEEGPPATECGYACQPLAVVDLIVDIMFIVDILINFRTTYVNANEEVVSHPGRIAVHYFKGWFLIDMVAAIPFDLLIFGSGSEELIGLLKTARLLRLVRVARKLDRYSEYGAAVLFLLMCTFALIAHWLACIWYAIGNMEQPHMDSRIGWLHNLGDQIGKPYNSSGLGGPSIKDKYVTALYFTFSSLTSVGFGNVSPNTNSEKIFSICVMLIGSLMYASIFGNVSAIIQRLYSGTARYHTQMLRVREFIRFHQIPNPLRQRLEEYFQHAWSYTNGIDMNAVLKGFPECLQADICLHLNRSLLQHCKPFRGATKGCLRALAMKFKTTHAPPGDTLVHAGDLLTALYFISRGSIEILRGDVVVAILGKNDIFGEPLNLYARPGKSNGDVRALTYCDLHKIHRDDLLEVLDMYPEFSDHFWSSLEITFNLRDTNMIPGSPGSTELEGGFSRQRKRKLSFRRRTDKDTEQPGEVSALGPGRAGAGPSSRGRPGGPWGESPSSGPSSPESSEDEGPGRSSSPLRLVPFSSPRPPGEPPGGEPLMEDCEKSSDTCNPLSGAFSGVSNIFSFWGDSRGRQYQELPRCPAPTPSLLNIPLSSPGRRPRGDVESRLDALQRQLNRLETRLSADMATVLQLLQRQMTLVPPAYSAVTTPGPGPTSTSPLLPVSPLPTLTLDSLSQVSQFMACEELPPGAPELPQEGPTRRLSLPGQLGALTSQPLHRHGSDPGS

SMILES | hERG current change (%, negative = inhibition) at 10uM
O=C1c2ccccc2S(=O)(=O)c2cc(C(=O)N3CCC(C(=O)N4CCCCC4)CC3)ccc21 | 4.81%
Cc1ccc(C(C(=O)NC2CCCC2)N(C(=O)c2csnn2)C2CCCC2)o1 (centres unmarked) | -4.91%
COc1ccc(N2CCN(C(=O)Nc3cccc(C(F)(F)F)c3)CC2)cc1 | -6.04%
Cc1ccc(NC(=O)COC(=O)/C=C/c2cccs2)c(C)c1 | -21.8%
CC(=O)c1c(C)nc(C)nc1NC(=O)C(C)C | 11%
CC(=O)Nc1ccc(Nc2ncnc(N)c2[N+](=O)[O-])cc1 | 12.6%
COc1ccc(NC(=O)N2c3ccccc3CC2C)cc1OC (centres unmarked) | -5.01%
COc1ccccc1C(=O)NCCN=C1NS(=O)(=O)c2ccccc21 | 10.4%
CCCCOc1ccc(C(=O)Nc2ccc(C)cc2[N+](=O)[O-])cc1 | 4.59%
CC(C)c1ccc([N+](=O)[O-])cc1S(=O)(=O)N1CCN(C)CC1 | 7.47%
CCOc1ccc(Br)cc1CNc1ccc2c(c1)OCCO2 | 21.9%
CCOC(CCNC(=O)c1cn(-c2cccc(C)n2)cn1)OCC | -0.276%
O=C(N/N=C/c1ccc(Br)s1)c1ccccc1[N+](=O)[O-] | 2.22%
N#CC[C@H](c1ccccc1)N1CCN(Cc2ccccc2)CCC1=O | -1.88%
COc1cc(CC(=O)OCC(=O)Nc2ccc([N+](=O)[O-])cc2)cc(OC)c1OC | -37.5%
CC1Cc2ccccc2N1C(=O)c1cc2sccc2n1Cc1ccccc1 (centres unmarked) | 7.64%
Cc1ccc(NC(=O)COC(=O)/C=C/c2cccs2)cc1 | 8.77%
O=C(CCn1c(=O)oc2ccccc21)Nc1ccon1 | 3.95%
Cc1cc(C)nc(SCC(=O)Nc2ccc(S(=O)(=O)Nc3onc(C)c3C)cc2)n1 | 1.94%
CCOC(=O)N1CCN(c2cc(=O)n(-c3ccc(OC)cc3)c(=O)[nH]2)CC1 | 0.278%
CCOc1cnc(-c2c(-c3ccccc3Cl)noc2C)o1 | -3.56%
O=S(=O)(NCc1ccccc1)NCc1ccc(Cl)cc1Cl | 17.5%
CCOc1cccc(OCCCCN2CCCCC2)c1 | -38.1%

SMILES | hERG current change (%, negative = inhibition) at 10uM
CCC(Sc1ccc2nnc(-c3ccc(F)cc3)n2n1)C(=O)O (centres unmarked) | -1.97%
CCOc1ccc(S(=O)(=O)N2CCCC(C(=O)NCc3ccncc3)C2)cc1Cl (centres unmarked) | -19.3%
C#C[C@]1(O)CCC2C3CCC4=C/C(=N/OCC(=O)NC(C)C(=O)NC(CCSC)C(=O)O)CC[C@]4(C)C3CC[C@@]21C (some centres unmarked) | 24.2%
COc1cc(C(=O)NCCCCCCNC(=O)c2cc(OC)c(OC)c(OC)c2)cc(OC)c1OC | 20.3%
O=C(N/N=C/c1ccco1)Nc1ccccc1 | 1.3%
Cl.Nc1ccn([C@H]2C[C@H](O)[C@@H](CO)O2)c(=O)n1 | 12.2%
Cc1occc1C(=O)N(Cc1nc(-c2ccccc2)no1)C(C)C | -11.6%
O=[N+]([O-])c1cc([As](=O)(O)c2ccc(O)c([N+](=O)[O-])c2)ccc1O | 11.7%
Cc1[nH]c2ccccc2c1SCc1nnc(SCc2ccccc2)n1C | 4.6%
CN(C(=O)c1ccccc1)c1ccccc1C(=O)NCCc1ccccc1 | 8.03%
CC1Cc2ccccc2N1C(=O)CSc1nn2c(=O)c(C(C)(C)C)nnc2s1 (centres unmarked) | 0.00368%
Nc1cccc(CN2CCCC2)c1 | 27.7%
COc1cccc(C(=O)NC(=S)Nn2cnnc2)c1OC | 9.4%
O=C(CCCCl)NC(=S)Nc1ccc(N2CCOCC2)cc1 | 7.94%
CCOc1ccc(S(=O)(=O)N(CC(=O)NC2CCCCC2C)Cc2ccco2)cc1 (centres unmarked) | -38.9%
CC1=NC2(CCCc3c2no[n+]3[O-])N(O)C1(C)C (centres unmarked) | 2.11%
O=C(NCC(=O)N1CCCCCCC1)c1cccc([N+](=O)[O-])c1 | 8.97%
CSc1ncccc1C(=O)OCc1cccc([N+](=O)[O-])c1 | -6.69%
Cc1ccc(S(=O)(=O)c2c(C)nn(C(C)(C)C)c2OC(=O)c2cccs2)cc1 | -19.7%
O=c1nc(-c2ccccc2)n(-c2ccc(Cl)cc2)[nH]1 | 12.3%
Cc1nc2ccc(C(=O)O)cc2nc1C | 34.7%
CN1C(=O)CC(N2CCN(c3ncccn3)CC2)C1=O (centres unmarked) | 1.27%
CCCn1c(N)c(C(=O)COC(=O)CCNS(=O)(=O)c2ccccc2F)c(=O)[nH]c1=O | 10.3%

SMILES | hERG current change (%, negative = inhibition) at 10uM
CS(=O)(=O)N(CC(=O)N1CCCC1)c1ccc(OCc2ccccc2)cc1 | -15.7%
Cc1ccc(C)c(CSc2nnc([C@@H]3CCCN3)o2)c1.Cl | 5.94%
COc1ccc(N2C(=O)CSC2c2ccccc2)cc1 (centres unmarked) | 6.28%
O=C(CC(Nc1ccccc1Cl)C(=O)O)c1ccccc1 (centres unmarked) | 10.8%
Cc1cccc(CCNC(=O)C2CCCN(S(=O)(=O)c3cnc[nH]3)C2)c1 (centres unmarked) | 3.84%
CC(C)(C)NC(=O)Cn1c(=O)oc2cc(S(=O)(=O)N3CCc4ccccc43)ccc21 | 4.37%
COc1ccc2oc(C(=O)NNC(=O)c3ccc(F)cc3)c(C)c2c1 | 19.6%
O=C(OCc1nnc(-c2ccccc2)o1)c1ccc(-n2cnnn2)cc1 | -21.6%
COc1ccccc1NNC(=O)c1cccnc1Oc1ccccc1 | 5.64%
O=C(Nc1c2c(nn1-c1ccccc1)CS(=O)C2)c1ccc(Br)o1 (centres unmarked) | 1.07%
Cc1cc(N2CCOCC2)nc(SCC(=O)OCc2ccccc2)n1 | -13.1%
CC(=O)Nc1ccc(S(=O)(=O)NC2(C(F)(F)F)C(=O)NC(C)=C2C#N)cc1 (centres unmarked) | 12.8%
CCN(CC)C(=O)C(=O)Nc1ccc(OC)c(Cl)c1 | 28.7%
Cc1ccc(NC(=O)Cn2nnc(C(=O)NCc3ccco3)c2N)c(C)c1 | 3.23%
Cc1ccc(S(=O)(=O)NC(CC(C)C)C(=O)N2CCC(C)CC2)cc1 (centres unmarked) | -9.25%
O=c1oc2ccccc2c(O)c1C=NCc1ccccn1 | -3.48%
Cc1c(NC(=O)CSc2nnc3c4ccccc4n(CCc4ccccc4)c3n2)c(=O)n(-c2ccccc2)n1C | -27.2%
CC(C)Nc1nc(Cl)nc(Nc2ccccc2)n1 | -3.65%
CCCCCCC(=O)OCC(=O)c1ccc2c(c1)NC(=O)CO2 | 7.12%
CC(C)(C)NC(=O)/C=C/c1cccs1 | 18.6%
S=C(NCCc1ccccc1)Nc1ccc(Br)cc1 | 3.43%
CCOc1ccc(S(=O)(=O)N/N=C2/CCCC(=O)C2)cc1 | 5.81%
Cl.O=C(CCCN1CCc2[nH]c3ccc(F)cc3c2C1)c1ccc(F)cc1 | -70.4%

SMILES | hERG current change (%, negative = inhibition) at 10uM
Clc1cccc(Cl)c1C1N2CCCN12 (centres unmarked) | 11.4%
Cn1cc(CCNC(=O)CC2C(=O)NCCN2CC(c2ccccc2)c2ccccc2)cn1 (centres unmarked) | 14%
CCC1(c2ccccc2)C(=O)N(C(=O)OC(C)(C)C)N1C(=O)OC(C)(C)C (centres unmarked) | 18.2%
COc1ccc(N2CCN(c3n[nH]c(N)n3)CC2)cc1 | 5.86%
C/C(=N\NC(=O)c1cccc(S(=O)(=O)N2CCCC2)c1)c1cccs1 | 18.6%
CSc1cccc(NC(=S)N(CCCN2CCCC2)Cc2cccn2Cc2ccc(Cl)cc2)c1 | -28.1%
CC(=O)c1c(C)nc2ccccc2c1N | -10.1%
COc1ccc(C(=O)NCC(=O)OCc2csc(-c3ccccc3)n2)cc1 | 7.81%
COc1cccc(/C=N/NC(=S)NCc2ccco2)c1OC | 10.9%
CC(C)(C)C(=O)NC1CCSC1=O (centres unmarked) | 8.46%
Cl.OC1CN=C2C=CC=CN2C1 (centres unmarked) | -2.41%
O=C(c1cnn2cccnc12)N1CCN(Cc2ccc3c(c2)OCO3)CC1 | 5.97%
O=C(NC1CCCCCC1)C1CC(=O)N(Cc2ccccc2)C1 (centres unmarked) | 5.17%
Cn1ncc(C#N)c1/N=C/N1CCOCC1 | 6.51%
COc1cc(CN2CCN(C(=O)c3cccc4ccccc34)CC2)cc(OC)c1O.O=C(O)C(=O)O | -0.297%
CCOC(=O)N1CCC(NC(=O)CCC(=O)N2CC(C)Oc3ccc(C)cc32)CC1 (centres unmarked) | 10.8%
COc1ccc(NC2=NCC(=O)N2c2ccccc2)c(OC)c1.Cl | 8.26%
COc1nc(SC)nc(Cl)c1Cc1ccc(OC(C)C)cc1 | -0.66%
COc1ccc(S(=O)(=O)NCC(=O)N(CC(=O)NCc2ccccc2)Cc2ccco2)cc1 | -17%
CCCS(=O)(=O)C(=C1Nc2ccccc2N1)S(=O)(=O)CCC | 1.4%
COCCOC(=O)c1c(C)oc2ccc(NS(=O)(=O)c3ccc(C)cc3)cc12 | -15.3%
Cc1occc1C(=O)Nc1cccc(Cl)c1Cl | -12.5%
Cc1sc(NC(=O)c2ccco2)c(CN2CCN(Cc3ccccc3)CC2)c1C | 3%
